PubChem BioAssay AID504333 (National Center for Advancing Translational Sciences (NCATS), 2011)
The whole screen tested about 360,000 compounds, of which about 16,000 (4.4%) were called active. This list was built around the results that the source calls inconclusive (neither active nor inactive); the mix of calls is not that of the screen. The call rests on the fitted dose curve; in most records, active means well fitted inhibition curve with a large enough effect; inconclusive means small, poorly fitted or top-dose-only effect; inactive means no such curve, though single readings can be large or run the other way. Where the call is inconclusive, the potency comes from a doubtful curve fit.

What follows are compounds tested against Bromodomain adjacent to zinc finger domain protein 2B (Homo sapiens) (UniProt Q9UIF8) (assay: qHTS Assay for Inhibitors of BAZ2B). Settings: AlphaScreen BAZ2B-H3K14Ac peptide displacement; activity change, negative = inhibition: at 114 µM (top of the series).
Sequence of UniProt Q9UIF8 (Q9UIF8 whole entry, looked up, the tested form may be a part): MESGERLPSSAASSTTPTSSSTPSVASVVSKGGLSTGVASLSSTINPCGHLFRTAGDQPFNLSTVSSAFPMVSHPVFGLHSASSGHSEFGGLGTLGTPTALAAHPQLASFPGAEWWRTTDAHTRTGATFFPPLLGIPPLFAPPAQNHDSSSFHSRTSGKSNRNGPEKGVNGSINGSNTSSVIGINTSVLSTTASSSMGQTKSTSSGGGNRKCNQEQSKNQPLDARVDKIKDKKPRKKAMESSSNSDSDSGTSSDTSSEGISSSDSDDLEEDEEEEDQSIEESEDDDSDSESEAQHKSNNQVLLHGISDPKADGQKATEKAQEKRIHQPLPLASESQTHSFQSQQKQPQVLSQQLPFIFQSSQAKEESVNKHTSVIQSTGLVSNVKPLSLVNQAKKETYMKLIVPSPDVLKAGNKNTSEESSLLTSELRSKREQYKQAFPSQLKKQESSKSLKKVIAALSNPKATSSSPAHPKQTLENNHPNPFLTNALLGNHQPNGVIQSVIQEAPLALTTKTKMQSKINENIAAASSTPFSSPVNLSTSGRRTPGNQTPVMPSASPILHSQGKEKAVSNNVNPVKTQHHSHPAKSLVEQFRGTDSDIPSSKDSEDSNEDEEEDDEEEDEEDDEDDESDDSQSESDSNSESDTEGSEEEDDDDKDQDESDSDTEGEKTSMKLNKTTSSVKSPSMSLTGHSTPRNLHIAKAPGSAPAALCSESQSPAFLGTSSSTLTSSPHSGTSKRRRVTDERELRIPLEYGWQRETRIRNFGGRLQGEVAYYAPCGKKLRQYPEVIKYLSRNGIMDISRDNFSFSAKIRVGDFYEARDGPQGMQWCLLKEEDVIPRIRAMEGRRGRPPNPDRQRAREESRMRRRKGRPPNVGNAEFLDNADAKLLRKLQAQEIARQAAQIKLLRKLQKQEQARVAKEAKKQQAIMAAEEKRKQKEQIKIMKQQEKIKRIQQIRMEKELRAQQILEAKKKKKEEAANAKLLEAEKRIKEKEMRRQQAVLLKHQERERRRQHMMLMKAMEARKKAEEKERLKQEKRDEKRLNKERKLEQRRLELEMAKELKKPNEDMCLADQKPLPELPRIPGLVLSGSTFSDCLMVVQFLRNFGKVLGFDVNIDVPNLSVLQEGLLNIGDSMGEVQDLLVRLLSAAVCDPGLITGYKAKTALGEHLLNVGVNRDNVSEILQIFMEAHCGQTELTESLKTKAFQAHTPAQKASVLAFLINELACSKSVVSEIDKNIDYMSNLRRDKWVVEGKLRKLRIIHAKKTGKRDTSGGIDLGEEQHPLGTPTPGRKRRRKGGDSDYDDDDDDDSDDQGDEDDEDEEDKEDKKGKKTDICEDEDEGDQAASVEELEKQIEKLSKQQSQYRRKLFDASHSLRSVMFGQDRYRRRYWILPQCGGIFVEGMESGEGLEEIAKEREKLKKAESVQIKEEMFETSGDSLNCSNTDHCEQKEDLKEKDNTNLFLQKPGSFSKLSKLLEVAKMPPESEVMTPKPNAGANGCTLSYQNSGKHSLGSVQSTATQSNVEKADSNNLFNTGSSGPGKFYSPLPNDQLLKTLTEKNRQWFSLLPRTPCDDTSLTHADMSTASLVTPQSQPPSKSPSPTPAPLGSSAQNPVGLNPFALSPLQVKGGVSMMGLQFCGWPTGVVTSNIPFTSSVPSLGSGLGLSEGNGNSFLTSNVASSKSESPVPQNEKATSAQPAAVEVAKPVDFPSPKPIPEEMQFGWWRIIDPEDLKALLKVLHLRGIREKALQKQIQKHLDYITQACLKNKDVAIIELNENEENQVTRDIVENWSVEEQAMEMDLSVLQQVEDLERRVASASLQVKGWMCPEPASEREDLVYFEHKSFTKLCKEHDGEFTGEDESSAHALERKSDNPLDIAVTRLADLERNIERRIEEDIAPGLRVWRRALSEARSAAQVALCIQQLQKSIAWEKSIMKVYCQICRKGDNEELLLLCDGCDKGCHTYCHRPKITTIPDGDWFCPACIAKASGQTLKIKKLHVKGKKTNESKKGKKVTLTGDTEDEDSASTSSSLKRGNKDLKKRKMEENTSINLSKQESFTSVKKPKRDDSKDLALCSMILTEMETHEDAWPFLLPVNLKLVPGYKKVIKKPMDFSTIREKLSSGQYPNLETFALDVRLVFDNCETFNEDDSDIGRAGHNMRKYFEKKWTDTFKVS
In short: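 AlphaScreen displacement: compounds (up to 110uM) incubated 30 min at room temperature with a preformed 50 nM BAZ2B/50 nM biotinylated H3K14Ac peptide complex in PBS pH 7.4 with Tween-20. Donor and acceptor beads at 10 ug/mL final added, 20 min light-protected before reading.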
Further: nearly all actives have a fitted effect of over 60% in size.
On the % scale 0 is the no-effect control and ±100 the full control effect; potency means the concentration at half of the fitted maximal effect; tags describe the fitted curve by direction and shape.

| Structure (SMILES) | Potency | activity change, negative = inhibition |
| --- | --- | --- |
| CCN(CC)CCCN=C1N[C@@H](c2ccccc2)C(C(=O)OC)=C(C)N1CC | active: 79.4 µM |  |
| O=C(NNc1ccccn1)C(=O)NNS(=O)(=O)c1ccc(Cl)cc1 | active: 56.2 µM |  |
| CCOC(=O)c1scc(-c2ccccc2)c1S(=O)(=O)Nc1cc(Cl)c(OC)cc1OC | inconclusive: 89.1 µM [inhibitor, single point] |  |
| Cc1cc(/C=N\NC(=O)c2cccs2)c(C)n1-c1ccc2ncccc2c1 | inconclusive: 50.1 µM [inhibitor, partial curve] |  |
| CCN(CC)C(=O)CC(c1cc(OC)c(OC)c(OC)c1)c1c(O)cc(OC)cc1OC (stereo not given) |  | inactive: 0.607% |
| CC1(C)CC(=O)N(c2cc(Cl)ccc2Cl)C(=O)C1 |  | inactive: 3.75% |
| O=C(c1cc(-c2ccco2)on1)N1CCCc2ccccc21 | inconclusive: 50.1 µM [inhibitor, partial curve] |  |
| CC(C)S(=O)(=O)c1csc(C(=O)NN)c1Cl |  | inactive: -9.15% |
| CNC(=O)/C(C#N)=C/c1c(N(Cc2ccccc2)Cc2ccccc2)nc2c(C)cccn2c1=O | inconclusive: 79.4 µM [inhibitor, single point] |  |
| CCCn1c(/N=C/c2ccc3c(c2)OCO3)nc2ccccc21 | inconclusive: 8.91 µM [inhibitor, single point] |  |
| CN(Cc1ccccc1)C(=S)NC(=O)c1cccs1 | inconclusive: 35.5 µM [inhibitor, partial curve] |  |
| CCN1C(=O)[C@H]2[C@@H](c3ccc(-c4ccc(OC)cc4)cc3)N[C@@](C)(C(=O)OC)[C@H]2C1=O |  | inactive: -2.58% |
| Cc1ccc(C(=O)/C=C/Nc2ccc(S(=O)(=O)Nc3onc(C)c3C)cc2)cc1 | inconclusive: 70.8 µM [inhibitor, single point] |  |
| CCOC(=O)N1CCC(NCCNC(=O)c2cccs2)CC1 | active: 79.4 µM |  |
| CC(C)CC(=O)Nc1sc2c(c1C(=O)O)CCCCC2 | inconclusive: 79.4 µM [inhibitor, single point] |  |
| CC1=NNC(=O)C1C(c1ccccc1)C1C(=O)NN=C1C (stereo not given) |  | inactive: -11% |
| Cc1cc(=O)[nH]c(SCC(=O)Nc2cccc3ccccc23)c1C#N | inconclusive: 89.1 µM [inhibitor, single point] |  |
| CC1(c2ccc(Cl)cc2)NC(=O)N(CC(=O)Nc2ccc(N3CCCCC3)cc2)C1=O (stereo not given) | inconclusive: 79.4 µM [inhibitor, single point] |  |
| COC(=O)c1ccc(N2CCN(c3ccccc3)CC2)c(NC(=O)C2CC2)c1 | inconclusive: 89.1 µM [inhibitor, single point] |  |
| C=CCc1c(C)nc(N2CCSCC2)[nH]c1=O |  | inactive: -2.19% |
| CC(=O)Nc1ccc(/C=C2\Sc3ccccc3C2=O)cc1 | inconclusive: 31.6 µM [inhibitor, partial curve] |  |
| O=C(Cc1c(F)cccc1Cl)Nc1ncc([N+](=O)[O-])s1 | inconclusive: 79.4 µM [inhibitor, single point] |  |
| COc1cc(OC)cc(C(=O)N2CCN(Cc3ccccc3C(F)(F)F)CC2)c1 | active: 35.5 µM |  |

| Structure (SMILES) | Potency | activity change, negative = inhibition |
| --- | --- | --- |
| COc1ccc(NC(=O)CO/N=C/C(=O)Nc2ccccc2C)c([N+](=O)[O-])c1 | inconclusive: 79.4 µM [inhibitor, single point] |  |
| Cn1c(=O)c2c(ncn2CC(=O)Nc2cccc(Cl)c2Cl)n(C)c1=O |  | inactive: 2.38% |
| COc1ccc(C(N)c2nccc3cc(OC)c(OC)cc23)cc1OC (stereo not given) | active: 14.1 µM |  |
| CC(C)c1nc2sc3c(SCC(=O)NCc4ccco4)ncnc3c2c2c1CCC2 | active: 56.2 µM |  |
| O=C1C=C(Nc2ccc(F)cc2)c2ccccc2C1=O | inconclusive: 44.7 µM [inhibitor, partial curve] |  |
| CCOC(=O)c1cnc2c(C#N)cnn2c1N | inconclusive: 89.1 µM [inhibitor, single point] |  |
| CN(C)S(=O)(=O)c1ccc(C(=O)Nc2nnc(-c3ccco3)o2)cc1 | active: 79.4 µM |  |
| C/C(=N\Nc1ccccn1)c1ccc(S(=O)(=O)NCc2ccco2)cc1 | active: 50.1 µM |  |
| COc1ccc(CCNC(=O)c2cccc(Nc3nc4ccccc4nc3-n3nc(C)cc3C)c2)cc1OC | inconclusive: 89.1 µM [inhibitor, single point] |  |
| FC(F)(F)c1ccc(C2[C@H]3CN(Cc4ccc(-c5ccccc5)cc4)[C@H](c4ccccc4)C34CC2(c2cccnc2)C4)cc1 (stereo not given in full) |  | inactive: -1.57% |
| COc1ccc(NS(=O)(=O)c2ccc(NC(=S)NC(=O)c3ccc(Br)cc3)cc2)nn1 | inconclusive: 22.4 µM [inhibitor, full curve] |  |
| COc1ccc(C2C=C(c3ccc(Cl)cc3)Nc3nc(-c4ccc(Cl)cc4)nn32)cc1 (stereo not given) | inconclusive: 79.4 µM [inhibitor, single point] |  |
| Cc1ccc(C(OCC(O)CNCc2ccc(F)cc2)c2ccccc2)cc1 (stereo not given) | active: 39.8 µM |  |
| O=C(/C=C/c1ccc([N+](=O)[O-])cc1)NCc1ccco1 |  | inactive: -33.2% |
| CCCN1CCc2c(sc(NC(=O)c3ccc(S(=O)(=O)N(C)c4ccccc4)cc3)c2C(N)=O)C1 | inconclusive: 70.8 µM [inhibitor, single point] |  |
| CCC(C)C(=O)Nc1nc(C)c(-c2csc(Nc3ccc(Cl)cc3)n2)s1 (stereo not given) | inconclusive: 50.1 µM [inhibitor, partial curve] |  |
| C(=N\NC1=NCCN1)/c1ccncc1 | inconclusive: 89.1 µM [inhibitor, single point] |  |
| O=C(CCN1C(=O)/C(=C\c2cccs2)SC1=S)Nc1ccccn1 | inconclusive: 79.4 µM [inhibitor, single point] |  |
| Cc1ccc(C2/C(=C(/O)c3ccc4c(c3)CC(C)O4)C(=O)C(=O)N2CCCn2ccnc2)cc1 (stereo not given) | inconclusive: 44.7 µM [inhibitor, full curve] |  |
| O=S(=O)(NCc1cccnc1)c1ccc2ccccc2c1 |  | inactive: 3.02% |
| O=C1NC(c2ccccc2Cl)=N/C1=C/c1ccco1 | inconclusive: 70.8 µM [inhibitor, single point] |  |
| Cc1ccc(NC(=O)c2cccc(F)c2)cc1S(=O)(=O)N1CCCCCC1 | inconclusive: 70.8 µM [inhibitor, single point] |  |
